{
  "source": "PubChem BioAssay AID624418",
  "about": "(National Center for Advancing Translational Sciences (NCATS), 2012)",
  "note": "Hit rate of the full screen: of about 410,000 compounds, about 530 (0.13%) were called active. Inconclusive means that the source gave no clear call. Such entries were picked first, then a sample of the others. Calls follow the shape of the dose curve; as a rule, active = well fitted inhibition curve with a large enough effect; inconclusive = small, poorly fitted or top-dose-only effect, or another doubt; inactive = no such curve, though single readings can be large or run the other way. Potencies of inconclusive entries are doubtful fits and often do not repeat.",
  "data": [
    {"experiment": "qHTS of GLP-1 Receptor Inverse Agonists: Cytotox Screen; also: potency is read from the fitted curve at half-maximal effect; as to activity change, negative = inhibition: % is scaled to controls: 0 for no effect and ±100 for the full control effect", "conditions": "HEK293 cAMP-luciferase reporter cells, luminescence, 24 h; activity change, negative = inhibition: at 38.3 µM (top of the series) unless noted", "summary_of_the_method": "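Compound-treated cells are incubated 24 hr at 37 deg C under 5% CO2 after a 12 hour attachment period, then luciferase detection reagent is added and luminescence is measured following 12 min at room temperature; lowered signal indicates toxicity.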", "values": [
      {"compound": "CCOc1ccc(-c2nn(-c3ccccc3)cc2C2NC(=O)NC(C)=C2C(=O)OC(C)C)cc1", "note": "(configuration not stated)", "activity change, negative = inhibition": "inactive: -7.66%"},
      {"compound": "Cc1ccc(Cl)cc1N1CCN(CC(=O)Nc2ccc(CN3CCCCC3)cc2)CC1", "Potency": "inconclusive: 12.6 µM [inhibitor, partial curve, poor fit]"},
      {"compound": "CC(=O)C1=C(C)NC(=S)NC1c1cc([N+](=O)[O-])ccc1O", "note": "(configuration not stated)", "Potency": "inconclusive: 28.2 µM [inhibitor, single point]"},
      {"compound": "COc1ccc(COc2cc(-c3cccc(OC)c3)nc3ccc(NC(=O)c4ccc(N(C)C)cc4)cc23)cc1", "Potency": "inconclusive: 2.24 µM [inhibitor, full curve, poor fit]"},
      {"compound": "Cc1ccc(CN2CCN(c3ccccc3)CC2)o1", "activity change, negative = inhibition": "inactive: -4.81%"},
      {"compound": "Cc1ccc(-c2ccc(/C=N/c3ncn[nH]3)o2)cc1Cl", "Potency": "inconclusive: 7.94 µM [inhibitor, partial curve, poor fit]"},
      {"compound": "Fc1ccc(NCc2ccccc2-c2nnc(-c3ccccc3Cl)o2)cc1", "activity change, negative = inhibition": "inactive: -10%"},
      {"compound": "CN1c2ccsc2/C(=N/Nc2ccccc2)CS1(=O)=O", "Potency": "inconclusive: 10 µM [inhibitor, partial curve]"},
      {"compound": "O=C(Cc1ccc(F)cc1)Nc1nc(-c2ccc(F)c(F)c2)cs1", "activity change, negative = inhibition": "inactive: -8.29%"},
      {"compound": "O=C(CCC(=O)c1ccc(F)cc1)Nc1ccc(Cl)cc1", "activity change, negative = inhibition": "inactive: -1.01%"},
      {"compound": "CCCCCN=Cc1c(C)[nH]n(-c2nc3ccccc3s2)c1=O", "activity change, negative = inhibition": "inactive: -27%"},
      {"compound": "COC(=O)c1sc2nc(C)cc(C)c2c1N", "activity change, negative = inhibition": "inactive: 30.5%"},
      {"compound": "Cc1ccc(-c2nc(SCC(=O)Nc3cc(S(=O)(=O)N4CCCCC4)ccc3Cl)n[nH]2)cc1", "Potency": "inconclusive: 28.2 µM [inhibitor, single point]"},
      {"compound": "CNC(=S)N/N=C/c1ccco1", "Potency": "inconclusive: 28.2 µM [inhibitor, single point]"},
      {"compound": "O=C(c1ccc2c(c1)N(Cc1ccccc1F)C(=O)c1ccccc1S2(=O)=O)N1CCN(c2ccccn2)CC1", "activity change, negative = inhibition": "inactive: -1.33%"},
      {"compound": "CC(=O)c1cccc(Oc2cc(NN3CCCCC3)c([N+](=O)[O-])cc2[N+](=O)[O-])c1", "Potency": "inconclusive: 3.98 µM [inhibitor, partial curve]"},
      {"compound": "c1ccc(-c2cc3nc(NCc4cccs4)ccn3n2)cc1", "activity change, negative = inhibition": "inactive: 1.24%"},
      {"compound": "Cc1cccc(NCc2ccc(O)c3ncccc23)c1", "Potency": "inconclusive: 3.16 µM [inhibitor, full curve]"},
      {"compound": "O=C1NN(c2cccc(Br)c2)C(=O)/C1=C\\c1ccc(O)cc1", "Potency": "inconclusive: 14.1 µM [inhibitor, single point]"},
      {"compound": "COc1ccc(S(=O)(=O)Nc2cc(C)cc(C)n2)c2ccccc12", "Potency": "inconclusive: 12.6 µM [inhibitor, partial curve, poor fit]"},
      {"compound": "CC(=O)/C(=N\\Nc1ccc(Cl)cc1)Sc1nnc(-c2ccccc2)n1-c1ccccc1", "Potency": "inconclusive: 28.2 µM [inhibitor, single point]"},
      {"compound": "OC[C@@H](O)[C@H](O)C(/C=N/Nc1ccccc1)=N\\Nc1ccccc1", "Potency": "inconclusive: 14.1 µM [inhibitor, single point]"},
      {"compound": "COCCNC(=O)c1cc(-c2ccccc2)nn1CC1CC(c2cccc([N+](=O)[O-])c2)=NO1", "note": "(configuration not stated)", "Potency": "inconclusive: 28.2 µM [inhibitor, single point]"},
      {"compound": "COc1ccc(NC(=O)Cn2cnc3sc(C)c(S(=O)(=O)N4CCOCC4)c3c2=O)cc1Cl", "Potency": "inconclusive: 0.501 µM [inhibitor, full curve, poor fit]"},
      {"compound": "OCCCNCc1ccc(N(c2ccccc2)c2ccccc2)cc1", "Potency": "inconclusive: 14.1 µM [inhibitor, single point]"},
      {"compound": "O=C(c1cnn2c(C(F)F)cc(C3CC3)nc12)N1CCCC1", "activity change, negative = inhibition": "inactive: -15.8%"},
      {"compound": "CCC(COC)NCc1cn(-c2ccc(OC)cc2)nc1-c1cccc(F)c1", "note": "(configuration not stated)", "Potency": "inconclusive: 10 µM [inhibitor, partial curve, poor fit]"},
      {"compound": "O=[N+]([O-])c1cc(Cc2ccccc2)cc(C=Nc2ccc(N3CCOCC3)cc2)c1O", "Potency": "inconclusive: 11.2 µM [inhibitor, partial curve, poor fit]"},
      {"compound": "CC(NCC(O)COCc1ccc(Cl)cc1)c1ccccc1", "note": "(configuration not stated)", "activity change, negative = inhibition": "inactive: -4.07%"},
      {"compound": "CCN(CC)CC#CCC(O)(c1ccccc1)C1CCCC1", "note": "(configuration not stated)", "Potency": "inconclusive: 28.2 µM [inhibitor, single point]"},
      {"compound": "Cc1ccc(C)c(NC(=O)CSc2n[nH]c(-c3ccccn3)n2)c1", "Potency": "inconclusive: 8.91 µM [inhibitor, partial curve, poor fit]"},
      {"compound": "CCCc1cnc(Nc2nc(C(N)Cc3ccc(C(F)(F)F)cc3)cs2)nc1", "note": "(configuration not stated)", "Potency": "inconclusive: 10 µM [inhibitor, partial curve, poor fit]"},
      {"compound": "COc1ccc(C(=O)Nc2cc(Cl)ccc2OC(=O)c2ccc(OC)cc2)cc1", "Potency": "inconclusive: 10 µM [inhibitor, single point]"},
      {"compound": "COc1cccc(NC(=O)/C=C/c2ccco2)c1", "activity change, negative = inhibition": "inactive: 1.09%"},
      {"compound": "CN1CCN(S(=O)(=O)c2ccc(N(C)Cc3ccc(C(F)(F)F)cc3)c([N+](=O)[O-])c2)CC1", "Potency": "inconclusive: 12.6 µM [inhibitor, single point]"},
      {"compound": "CCOc1ccc(NC(=O)CCN2CCN(c3ccccc3OC)CC2)cc1", "activity change, negative = inhibition": "inactive: 2.1%"},
      {"compound": "COc1ccc(Oc2nc(-c3ccccn3)nc3ccccc23)cc1", "Potency": "inconclusive: 0.501 µM [inhibitor, full curve, poor fit]"},
      {"compound": "Cc1ccc(NC(=O)C(C)Sc2nnc(C3CC3)n2C2CC2)cc1S(=O)(=O)N1CCOCC1", "note": "(configuration not stated)", "Potency": "inconclusive: 1 µM [inhibitor, full curve, poor fit]"},
      {"compound": "O=C(Nc1ccc2c(c1)OCCO2)c1ccc2nccnc2c1", "Potency": "inconclusive: 28.2 µM [inhibitor, single point]"},
      {"compound": "CC(C)(C)c1nc2ccccc2c2nnc(SCC(=O)Nc3nc4ccccc4s3)n12", "Potency": "inconclusive: 28.2 µM [inhibitor, single point]"},
      {"compound": "CCCCOc1ccc(CSCCNC(=S)Nc2ccccc2)cc1", "Potency": "active: 3.16 µM"},
      {"compound": "CCOc1ccc(NC(=O)c2cc(S(=O)(=O)N3CCc4ccccc43)ccc2F)cc1", "activity change, negative = inhibition": "inactive: 2.35%"},
      {"compound": "C=CCNC(=S)Nc1sc2c(c1C(=O)OCC)CC(C(C)C)OC2", "note": "(configuration not stated)", "Potency": "inconclusive: 11.2 µM [inhibitor, partial curve]"},
      {"compound": "Cc1nn(C)cc1CNC(=O)c1cnn2c1NC(c1ccc(Br)cc1)CC2C(F)(F)F", "note": "(configuration not stated)", "Potency": "inconclusive: 11.2 µM [inhibitor, partial curve]"},
      {"compound": "COC(=O)c1sccc1S(=O)(=O)N(CC(=O)NCc1ccc(C)cc1)c1ccc(C)cc1", "activity change, negative = inhibition": "inactive: -5.96%"},
      {"compound": "Cc1ccc(C(=O)NC(=S)NCC2CCCO2)cc1[N+](=O)[O-]", "note": "(configuration not stated)", "Potency": "inconclusive: 20 µM [inhibitor, single point]"},
      {"compound": "c1ccc(C[C@H]2CNCCN2CCC23CC4CC(CC(C4)C2)C3)cc1", "Potency": "inconclusive: 28.2 µM [inhibitor, single point]"},
      {"compound": "COc1ccc(C2=NN(C(N)=S)C(c3ccccc3)C2)cc1", "note": "(configuration not stated)", "Potency": "inconclusive: 28.2 µM [inhibitor, single point]"},
      {"compound": "COc1ccc(C(=O)N/N=C/c2cn[nH]c2-c2ccc(OC)cc2OC)cc1", "Potency": "inconclusive: 28.2 µM [inhibitor, single point]"},
      {"compound": "Cc1cc(C)n(-c2nc(NC(C)(C)C)nc(NC(C)(C)C)n2)n1", "Potency": "inconclusive: 1.26 µM [inhibitor, full curve, poor fit]"},
      {"compound": "OC(CNCCC(c1ccccc1)c1ccccc1)COc1ccccc1", "note": "(configuration not stated)", "Potency": "inconclusive: 28.2 µM [inhibitor, single point]"},
      {"compound": "Cc1ccc(C(C)C)c(OCC(O)CN2CCc3ccccc3C2)c1", "note": "(configuration not stated)", "Potency": "inconclusive: 14.1 µM [inhibitor, single point]"},
      {"compound": "Cc1ccc(-c2nn(-c3ccccc3)cc2NC(=O)CCl)cc1", "Potency": "inconclusive: 28.2 µM [inhibitor, single point]"},
      {"compound": "COCCNC(=S)N(CCc1c(C)[nH]c2ccc(Cl)cc12)Cc1cccs1", "Potency": "inconclusive: 11.2 µM [inhibitor, partial curve]"},
      {"compound": "CN1C(C(=O)Nc2ccc(OC(F)(F)F)cc2)=CC(c2cccs2)=NS1(=O)=O", "Potency": "inconclusive: 20 µM [inhibitor, single point]"},
      {"compound": "CC(=O)Nc1cccc(NC(=O)C2CC(=O)N(CCc3ccc(F)cc3)C2)c1", "note": "(configuration not stated)", "activity change, negative = inhibition": "inactive: 0.449%"},
      {"compound": "COc1cccc(CC2(CO)CCCN(Cc3cc4ccccc4[nH]3)C2)c1", "note": "(configuration not stated)", "Potency": "inconclusive: 11.2 µM [inhibitor, single point]"},
      {"compound": "O=C(NN=C1CCN(Cc2ccccc2)CC1)c1cc(Br)ccc1O", "activity change, negative = inhibition": "inactive: -4.57%"},
      {"compound": "Cc1cc(=O)oc2cc(OCC(=O)NCc3cccnc3)ccc12", "activity change, negative = inhibition": "inactive: 12.9%"},
      {"compound": "C=CC(=O)Nc1ccc(CN2C(=O)N(c3c(Cl)c(OC)cc(OC)c3Cl)Cc3cnc(NCCCCN(CC)CC)nc32)cc1", "Potency": "inconclusive: 5.01 µM [inhibitor, full curve, poor fit]"},
      {"compound": "COc1cccc(CNC(=O)C2CCN(S(=O)(=O)c3ccc4c(c3)CCCN4C(C)=O)CC2)c1", "activity change, negative = inhibition": "inactive: 4.82%"},
      {"compound": "N=c1c2c(ncn1CCCO)Oc1c(ccc3ccccc13)C2c1ccccc1", "note": "(configuration not stated)", "Potency": "inconclusive: 10 µM [inhibitor, partial curve, poor fit]"},
      {"compound": "Cc1ccnc(NC(=S)NC(=O)/C=C/c2ccccc2)c1", "activity change, negative = inhibition": "inactive: -18.7%"},
      {"compound": "O=C(Nc1nncs1)C1c2ccccc2Oc2ccccc21", "Potency": "inconclusive: 6.31 µM [inhibitor, partial curve, poor fit]"},
      {"compound": "CCN(Cc1nc2cc(Cl)ccc2c(=O)[nH]1)C(=O)COc1ccccc1Cc1ccccc1", "Potency": "inconclusive: 11.2 µM [inhibitor, single point]"},
      {"compound": "OCc1ccccc1SSc1ccccc1CO", "Potency": "inconclusive: 20 µM [inhibitor, single point]"},
      {"compound": "CCC1(CC)Cc2ccccc2-c2nc(CN(C)C)[nH]c(=O)c21", "Potency": "inconclusive: 11.2 µM [inhibitor, single point]"}
    ]}
  ]
}
